# In all, about 310,000 compounds went through this assay and about 14,000 (4.5%) showed an effect of 50% or more. The effect is printed as a negative number. Some of the results follow.
# Target: human ether-à-go-go-related gene (hERG) potassium channel (human, UniProt Q12809)
# Experiment: primary screen, population patch clamp on CHO cells stably expressing hERG
# 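Further: peak tail current of the secondary pulse compared with the same well before compound.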
# Sequence of human ether-à-go-go-related gene (hERG) potassium channel (Q12809 whole entry, looked up): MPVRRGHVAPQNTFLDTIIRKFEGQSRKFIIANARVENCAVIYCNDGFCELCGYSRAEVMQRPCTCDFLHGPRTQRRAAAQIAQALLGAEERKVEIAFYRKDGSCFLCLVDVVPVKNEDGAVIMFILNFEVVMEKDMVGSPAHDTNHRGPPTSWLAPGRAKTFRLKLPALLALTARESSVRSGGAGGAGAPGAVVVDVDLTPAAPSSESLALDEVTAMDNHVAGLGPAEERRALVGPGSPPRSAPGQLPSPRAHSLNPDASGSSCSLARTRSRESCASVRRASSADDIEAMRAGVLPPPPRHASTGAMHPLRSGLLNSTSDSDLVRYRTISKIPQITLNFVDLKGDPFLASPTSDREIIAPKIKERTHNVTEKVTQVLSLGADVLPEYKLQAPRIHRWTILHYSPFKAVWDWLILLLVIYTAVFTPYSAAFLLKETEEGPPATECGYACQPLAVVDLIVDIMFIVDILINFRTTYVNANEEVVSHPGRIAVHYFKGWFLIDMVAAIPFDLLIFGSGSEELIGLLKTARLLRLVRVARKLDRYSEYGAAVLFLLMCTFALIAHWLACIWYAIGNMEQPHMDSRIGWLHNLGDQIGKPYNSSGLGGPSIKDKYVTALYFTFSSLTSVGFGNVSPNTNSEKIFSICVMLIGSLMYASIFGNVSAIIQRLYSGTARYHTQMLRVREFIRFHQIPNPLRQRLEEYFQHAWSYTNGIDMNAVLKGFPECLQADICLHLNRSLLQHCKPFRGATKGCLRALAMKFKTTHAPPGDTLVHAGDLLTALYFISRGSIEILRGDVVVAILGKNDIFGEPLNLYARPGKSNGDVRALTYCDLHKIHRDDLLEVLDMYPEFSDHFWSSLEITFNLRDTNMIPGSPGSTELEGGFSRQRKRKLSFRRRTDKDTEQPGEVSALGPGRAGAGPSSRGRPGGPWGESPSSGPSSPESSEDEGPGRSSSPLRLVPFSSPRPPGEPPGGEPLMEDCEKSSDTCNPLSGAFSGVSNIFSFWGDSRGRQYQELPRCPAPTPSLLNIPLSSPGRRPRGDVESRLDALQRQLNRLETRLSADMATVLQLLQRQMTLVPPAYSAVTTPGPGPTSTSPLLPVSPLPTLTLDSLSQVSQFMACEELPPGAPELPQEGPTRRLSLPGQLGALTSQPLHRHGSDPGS
row,SMILES,"hERG current change (%, negative = inhibition) at 10uM [%]"
1,O=C(O)Cn1cc(C(=S)N2CCOCC2)c2ccccc21,-4.28
2,Cc1cccc(OCc2nnc3n2CCCCC3)c1,-11.2
3,Cc1cc(NC(=NC2CC2)c2ccccc2F)n(-c2ccccc2)n1,-3.89
4,COc1cc(CCC(=O)OCC(=O)Nc2ccc(Br)cc2F)cc(OC)c1OC,-11.6
5,CCCP(=O)(CCC)CCP(=O)(c1ccccc1)c1ccccc1,20.2
6,O=C(CSc1nc2[nH]ncc2c(=O)[nH]1)NCCc1ccccc1,26.9
7,CCCCc1nc2ccccc2c(NC(=O)CN(CC)CC)c1CCC.O=C(O)C(=O)O,-26.8
8,C/C(CC(=O)Nc1cccc(C(F)(F)F)c1)=N\NC(=O)Cc1ccccc1,15.7
9,CSc1ccc(CN(C)C(=O)c2cccc(S(=O)(=O)NCc3ccccc3)c2)cc1,-11.1
10,O=C1C=C(c2cccc(Br)c2)C[C@@H](c2ccc(F)cc2)C1,-2.46
11,CCOc1ccc2ccccc2c1/C=N/NC(=O)CNC(=O)c1ccccc1O,0.596
12,CCOC(=O)c1c(NC(=O)C2=C(C)NC(=S)NC2c2ccc(CC)cc2)sc(C)c1C (stereo not drawn),7.47
13,CC12CCC(=O)N1C(C(=O)Nc1nc(-c3ccc(F)cc3)cs1)CS2 (stereo not drawn),6.39
14,O=C(C1COc2ccccc2O1)N1CCN(c2ccccc2O)CC1 (stereo not drawn),-12.5
15,N#CCCN(C(=O)COc1ccc(Cl)cc1Cl)c1ccccc1,-37.5
16,CC(=O)c1cc(F)c(N2CCN(c3ccc([N+](=O)[O-])cc3F)CC2)cc1C,-12.3
17,Oc1ccc(N=Nc2ccccc2)o1,9.51
18,CC1=NNC(=O)C1CCC(=O)N/N=C\c1ccc(Cl)c(Cl)c1 (stereo not drawn),7.67
19,Nc1nonc1-n1nnc(C(=O)N/N=C/c2ccncc2)c1-c1ccccc1,14.2
20,O=C(/C=C/c1ccco1)N(Cc1ccccc1F)C1CCS(=O)(=O)C1 (stereo not drawn),-5.23
21,CSc1ccccc1NC(=O)CN1CCN(Cc2ccccc2)CC1,-66.3
22,CCN(CC)CCCNC(=O)c1cc2nc3c(c(C(F)(F)F)n2n1)CCc1ccccc1-3,-37.1
23,O=C(CC(=O)NCc1cccnc1)NCc1cccnc1,-5.35

row,SMILES,"hERG current change (%, negative = inhibition) at 10uM [%]"
1,CCn1cnc2c1c(=O)n(CC(=O)Nc1cc(C)on1)c(=O)n2Cc1ccccc1,2.01
2,O=C(Nc1nnc(C2CCCO2)s1)c1cccs1 (stereo not drawn),1.35
3,Cc1cc(C)cc(C(=O)N2CCC3(CC2)NCCc2[nH]cnc23)c1,19.8
4,CC(=O)Nc1ccccc1C(=O)OCc1ccccc1F,3.58
5,CCCn1c(-c2ccc(F)cc2)cnc1SCC(=O)O,8.51
6,CCCn1nc(Oc2nc(NC(C)C)nc(N(C)C)n2)ccc1=O,20.7
7,CC1CN(Cc2ccccc2)c2nc3c(c(=O)[nH]c(=O)n3C)n2C1 (stereo not drawn),-5.62
8,CCS(=O)(=O)N1CCN(c2ncnc3sc(C)c(C)c23)CC1,-53.7
9,Cc1cc(C)c(S(=O)(=O)NCc2csc(C)n2)c(C)c1,13.2
10,C=CCOc1c(Br)cc(/C=C2/C(=O)ON=C2C)cc1OC,5.84
11,O=C(c1ccc([N+](=O)[O-])cc1)N1CCN(C(=O)C2CCCCC2)CC1,-28.5
12,CC(C)CC(NC(=O)CCl)c1ccccc1 (stereo not drawn),2.29
13,CC(C)n1c(N2CCN(C(=O)NCc3ccccc3)CC2)nc2ccccc21,-59.2
14,c1ccn2c(SCc3cn4ccsc4n3)nnc2c1,6.9
15,Cn1c(SCC(=O)c2c(N)n(C)c(=O)n(C)c2=O)nnc1-c1ccc(F)cc1,17.6
16,COc1cc(/C=N/n2c(-c3ccccc3)n[nH]c2=S)ccc1O,-4.77
17,COC(=O)c1ccc(/C=C/c2c(-c3ccc(OC)cc3)oc3ccccc23)cc1,7.39
18,CNC(C)Cc1ccccc1Sc1ccc(O)cc1.Cl (stereo not drawn),-66.7
19,COc1ccc(NC(=O)COC(=O)c2n[nH]c3ccccc23)c(OC)c1,-4.2
20,CCC1S/C(=N\S(=O)(=O)c2cccs2)N(C2CCCCC2)C1=O (stereo not drawn),-6.13
21,CCCCC(=O)OCc1c(-c2ccccc2)ncc2ccccc12,3.13
22,Cc1ccc(C(=O)NCC2CCCN2S(=O)(=O)c2ccc(C)cc2)cc1 (stereo not drawn),-33.8
